In paper PMC3542376:
Results are given in words; binding and its absence hold for the method and conditions named. Some entries that bind do so weakly or less than the wild type.

B1: SAAL1 (protein, UniProt Q96ER3 1-474)
chain: MDRNPSPPPPGRDKEEEEEVAGGDCIGSTVYSKHWLFGVLSGLIQIVSPENTKSSSDDEEQLTELDEEMENEICRVWDMSMDEDVALFLQEFNAPDIFMGVLAKSKCPRLREICVGILGNMACFQEICVSISSDKNLGQVLLHCLYDSDPPTLLETSRLLLTCLSQAEVASVWVERIQEHPAIYDSICFIMSSSTNVDLLVKVGEVVDKLFDLDEKLMLEWVRNGAAQPLDQPQEESEEQPVFRLVPCILEAAKQVRSENPEWLDVYMHILQLLTTVDDGIQAIVHCPDTGKDIWNLLFDLVCHEFCQSDDPPIILQEQKTVLASVFSVLSAIYASQTEQEYLKIEKVDLPLIDSLIRVLQNMEQCQKKPENSAESNTEETKRTDLTQDDFHLKILKDILCEFLSNIFQALTKETVAQGVKEGQLSKQKCSSAFQNLLPFYSPVVEDFIKILREVDKALADDLEKNFPSLKVQT
B2: EBP1 (protein, UniProt Q9UQ80 1-394)
chain: MSGEDEQQEQTIAEDLVVTKYKMGGDIANRVLRSLVEASSSGVSVLSLCEKGDAMIMEETGKIFKKEKEMKKGIAFPTSISVNNCVCHFSPLKSDQDYILKEGDLVKIDLGVHVDGFIANVAHTFVVDVAQGTQVTGRKADVIKAAHLCAEAALRLVKPGNQNTQVTEAWNKVAHSFNCTPIEGMLSHQLKQHVIDGEKTIIQNPTDQQKKDHEKAEFEVHEVYAVDVLVSSGEGKAKDAGQRTTIYKRDPSKQYGLKMKTSRAFFSEVERRFDAMPFTLRAFEDEKKARMGVVECAKHELLQPFNVLYEKEGEFVAQFKFTVLLMPNGPMRITSGPFEPDLYKSEMEVQDAELKALLQSSASRKTQKKKKKKASKTAENATSGETLEENEAGD
B3: CDK5RAP3 (protein, UniProt Q96JB5 1-506)
chain: MEDHQHVPIDIQTSKLLDWLVDRRHCSLKWQSLVLTIREKINAAIQDMPESEEIAQLLSGSYIHYFHCLRILDLLKGTEASTKNIFGRYSSQRMKDWQEIIALYEKDNTYLVELSSLLVRNVNYEIPSLKKQIAKCQQLQQEYSRKEEECQAGAAEMREQFYHSCKQYGITGENVRGELLALVKDLPSQLAEIGAAAQQSLGEAIDVYQASVGFVCESPTEQVLPMLRFVQKRGNSTVYEWRTGTEPSVVERPHLEELPEQVAEDAIDWGDFGVEAVSEGTDSGISAEAAGIDWGIFPESDSKDPGGDGIDWGDDAVALQITVLEAGTQAPEGVARGPDALTLLEYTETRNQFLDELMELEIFLAQRAVELSEEADVLSVSQFQLAPAILQGQTKEKMVTMVSVLEDLIGKLTSLQLQHLFMILASPRYVDRVTEFLQQKLKQSQLLALKKELMVQKQQEALEEQAALEPKLDLLLEKTKELQKLIEADISKRYSGRPVNLMGTSL
B4: RNA binding protein NOB1 (protein, UniProt Q9ULX3 1-412)
chain: MAPVEHVVADAGAFLRHAALQDIGKNIYTIREVVTEIRDKATRRRLAVLPYELRFKEPLPEYVRLVTEFSKKTGDYPSLSATDIQVLALTYQLEAEFVGVSHLKQEPQKVKVSSSIQHPETPLHISGFHLPYKPKPPQETEKGHSACEPENLEFSSFMFWRNPLPNIDHELQELLIDRGEDVPSEEEEEEENGFEDRKDDSDDDGGGWITPSNIKQIQQELEQCDVPEDVRVGCLTTDFAMQNVLLQMGLHVLAVNGMLIREARSYILRCHGCFKTTSDMSRVFCSHCGNKTLKKVSVTVSDDGTLHMHFSRNPKVLNPRGLRYSLPTPKGGKYAINPHLTEDQRFPQLRLSQKARQKTNVFAPDYIAGVSPFVENDISSRSATLQVRDSTLGAGRRRLNPNASRKKFVKKR
B5: PTS (protein, UniProt Q03393 1-145)
chain: MSTEGGGRRCQAQVSRRISFSASHRLYSKFLSDEENLKLFGKCNNPNGHGHNYKVVVTVHGEIDPATGMVMNLADLKKYMEEAIMQPLDHKNLDMDVPYFADVVSTTENVAVYIWDNLQKVLPVGVLYKVKVYETDNNIVVYKGE
B6: PRPF39 (protein, UniProt Q86UA1 1-669)
chain: MQNSHMDEYRNSSNGSTGNSSEVVVEHPTDFSTEIMNVTEMEQSPDDSPNVNASTEETEMASAVDLPVTLTETEANFPPEYEKFWKTVENNPQDFTGWVYLLQYVEQENHLMAARKAFDRFFIHYPYCYGYWKKYADLEKRHDNIKPSDEVYRRGLQAIPLSVDLWIHYINFLKETLDPGDPETNNTIRGTFEHAVLAAGTDFRSDRLWEMYINWENEQGNLREVTAIYDRILGIPTQLYSHHFQRFKEHVQNNLPRDLLTGEQFIQLRRELASVNGHSGDDGPPGDDLPSGIEDITDPAKLITEIENMRHRIIEIHQEMFNYNEHEVSKRWTFEEGIKRPYFHVKPLEKAQLKNWKEYLEFEIENGTHERVVVLFERCVISCALYEEFWIKYAKYMENHSIEGVRHVFSRACTIHLPKKPMVHMLWAAFEEQQGNINEARNILKTFEECVLGLAMVRLRRVSLERRHGNLEEAEHLLQDAIKNAKSNNESSFYAVKLARHLFKIQKNLPKSRKVLLEAIERDKENTKLYLNLLEMEYSGDLKQNEENILNCFDKAVHGSLPIKMRITFSQRKVEFLEDFGSDVNKLLNAYDEHQTLLKEQDSLKRKAENGSEEPEEKKAHTEDTTSSSTQMIDGDLQANQAVYNYSAWYQYNYQNPWNYGQYYPPPPT
B7: HPRT1 (protein, UniProt P00492 1-218)
chain: MATRSPGVVISDDEPGYDLDLFCIPNHYAEDLERVFIPHGLIMDRTERLARDVMKEMGGHHIVALCVLKGGYKFFADLLDYIKALNRNSDRSIPMTVDFIRLKSYCNDQSTGDIKVIGGDDLSTLTGKNVLIVEDIIDTGKTMQTLLSLVRQYNPKMVKVASLLVKRTPRSVGYKPDFVGFEIPDKFVVGYALDYNEYFRDLNHVCVISETGKAKYKA
B8: PRDX4 (protein, UniProt Q13162 1-271)
chain: MEALPLLAATTPDHGRHRRLLLLPLLLFLLPAGAVQGWETEERPRTREEECHFYAGGQVYPGEASRVSVADHSLHLSKAKISKPAPYWEGTAVIDGEFKELKLTDYRGKYLVFFFYPLDFTFVCPTEIIAFGDRLEEFRSINTEVVACSVDSQFTHLAWINTPRRQGGLGPIRIPLLSDLTHQISKDYGVYLEDSGHTLRGLFIIDDKGILRQITLNDLPVGRSVDETLRLVQAFQYTDKHGEVCPAGWKPGSETIIPDPAGKLKYFDKLN

Molecular target: PRMT6 full length (aa 1-375), LexA fusion (human) (UniProt Q96LA8)
Experiment: two-hybrid; library screen: LexA-PRMT6 (aa 1-375) as bait in S. cerevisiae EGY48, human fetal brain cDNA library in pJG4-5 as prey; Leu+ and beta-galactosidase filter assay; positives re-transformed and confirmed

| binding | Binder |
| --- | --- |
| binds | B1 |
| binds | B3 |
| binds | B4 |
| binds | B5 |
| binds | B6 |
| binds | B7 |
| binds | B8 |

| Binder | binding |
| --- | --- |
| B2 | binds |

Molecular target: PRMT6 185-375, LexA fusion (human) (UniProt Q96LA8)
Experiment: two-hybrid; pairwise mapping: EGY48 with LexA-PRMT6 full length or deletion mutants and each partner in pJG4-5; assayed as in the screen

| binding | Binder |
| --- | --- |
| no binding | B1 |
| no binding | B3 |
| no binding | B4 |
| no binding | B5 |
| no binding | B6 |
| no binding | B7 |
| no binding | B8 |

| Binder | binding |
| --- | --- |
| B2 | no binding |

Molecular target: PRMT6 full length (aa 1-375), LexA fusion (human) (UniProt Q96LA8)
Experiment: as above

| binding | Binder |
| --- | --- |
| binds | B1 |
| binds | B3 |
| binds | B4 |
| binds | B5 |
| binds | B6 |
| binds | B7 |
| binds | B8 |

| Binder | binding |
| --- | --- |
| B2 | binds |

Molecular target: PRMT6 1-86, LexA fusion (human) (UniProt Q96LA8)
Experiment: as above

| binding | Binder |
| --- | --- |
| binds | B1 |
| binds | B3 |
| binds | B4 |
| binds | B5 |
| binds | B6 |
| binds | B7 |
| binds | B8 |

| Binder | binding |
| --- | --- |
| B2 | binds |

Molecular target: PRMT6 1-184, LexA fusion (human) (UniProt Q96LA8)
Experiment: as above

| binding | Binder |
| --- | --- |
| binds | B1 |
| binds | B3 |
| binds | B4 |
| binds | B5 |
| binds | B6 |
| binds | B7 |
| binds | B8 |

| Binder | binding |
| --- | --- |
| B2 | binds |

Molecular target: PRMT6 87-375, LexA fusion (human) (UniProt Q96LA8)
Experiment: as above

| binding | Binder |
| --- | --- |
| no binding | B1 |
| no binding | B3 |
| no binding | B4 |
| no binding | B5 |
| no binding | B6 |
| no binding | B7 |
| no binding | B8 |

| Binder | binding |
| --- | --- |
| B2 | no binding |
